# From PubChem BioAssay AID504832 (National Center for Advancing Translational Sciences (NCATS), 2011)
# Out of some 310,000 compounds screened, about 18,000 (5.8%) were called active. Inconclusive results, whose numbers are uncertain, are shown with a selection of clear calls. Calls follow the shape of the dose curve; as a rule, active = well fitted inhibition curve with a large enough effect; inconclusive = small, poorly fitted or top-dose-only effect, or another doubt; inactive = no such curve, though single readings can be large or run the other way. No potency is given beside an inconclusive call; the fits are too rough.
# Experiment: Primary qHTS for delayed death inhibitors of the malarial parasite plastid, 48 hour incubation
# Details: P. falciparum luciferase growth in erythrocytes; series mostly up to 28.7 µM; activity change, negative = inhibition: at the top concentration
# Procedure, shortened: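 A one-generation exposure of luciferase-tagged malaria parasites in RPMI 1640/Albumax erythrocyte culture, 37 C and 5% CO2. Inhibition is inferred from decreased luminescence after adding detection reagent.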
# % is scaled to controls: 0 for no effect and ±100 for the full control effect; potency is read from the fitted curve at half-maximal effect; tags tell the direction and shape of the fitted curve.
SMILES,Potency,"activity change, negative = inhibition"
CCCCn1c(N)c(N(CC(C)C)C(=O)CCCc2nc3ccccc3s2)c(=O)[nH]c1=O,"inconclusive [inhibitor, partial curve]",
CCc1cc(=O)oc2c3c(cc(OCC(=O)N[C@H](C(=O)O)[C@H](C)CC)c12)OC(C)(C)CC3,"inconclusive [inhibitor, single point]",
Cc1cccc(NC(=O)c2ccc(N3C(=O)C4C5C=CC(C6CC56)C4C3=O)cc2)c1 (stereo not given),"inconclusive [inhibitor, partial curve]",
CN1C(=O)C(C)(C)c2cc(S(=O)(=O)N3CCCC(C(=O)Nc4ccc(Cl)cc4)C3)ccc21 (stereo not given),"inconclusive [inhibitor, full curve]",
Cn1cc(/C=C/c2nc3ccccc3c(=O)n2-c2cccc([N+](=O)[O-])c2)c2ccccc21,active: 10.4 µM,
Cc1ccc(-c2cc3nc(-c4ccccc4)cc(N)n3n2)cc1,"inconclusive [inhibitor, full curve, poor fit]",
COc1ccccc1C(=O)NCCC(=O)Nc1ccc(OC(F)(F)F)cc1,"inconclusive [inhibitor, full curve, poor fit]",
CCCCC(=O)Nc1ccc(C(=O)NNC(=S)NC(=O)c2cccs2)cc1,"inconclusive [inhibitor, single point]",
COc1ccc(-c2cc(C)no2)cc1S(=O)(=O)NCCCN1CCCCCC1,"inconclusive [inhibitor, single point]",
COc1ccc([N+](=O)[O-])cc1NC(=S)NC(NC(=O)Cc1ccc(OC)c(OC)c1)C(Cl)(Cl)Cl (stereo not given),"inconclusive [inhibitor, partial curve, poor fit]",
COc1ccc(CNC(=O)c2ccccc2NC(=O)C2=CSCCO2)c(OC)c1,"inconclusive [inhibitor, partial curve, poor fit]",
CN(Cc1ccccc1)C(=O)c1ccc(NC(=O)Cc2cccc(NC(=O)C3CCCN(C(=O)C4CCCCC4)C3)c2)cc1 (stereo not given),"inconclusive [inhibitor, partial curve]",
CC(C)COCC(O)CCC(=O)NNC(=S)Nc1ccccc1 (stereo not given),,inactive: 7.64%
CC(C)Cn1ccc(=O)n(CC(C)C)c1=O,,inactive: 7.18%
CCn1c(COc2ccc(=O)n(-c3ccccc3)n2)nnc1SCc1ccc(OC)cc1,"inconclusive [inhibitor, partial curve, poor fit]",
Cc1cc2cc(C=C(C#N)C#N)c(Cl)nc2cc1C,,inactive: 31.4%
CC(C)C[C@@H](CO)N1CCN(Cc2ccc([N+](=O)[O-])cc2)CCC1=O,,inactive: -0.59%
Cc1ccccc1S(=O)(=O)N1CC(C(=O)O)=CC[C@H]1c1ccc(Cl)cc1,"inconclusive [inhibitor, partial curve, poor fit]",
Cc1ccc(-n2nnnc2SCC(=O)c2c(N)n(C3CC3)c(=O)[nH]c2=O)cc1,"inconclusive [inhibitor, partial curve, poor fit]",
COc1cccc(C(=O)C2CCCN(Cc3cn(CC(N)=O)c4ccccc34)C2)c1 (stereo not given),"inconclusive [inhibitor, partial curve]",
COC(=O)c1ccc(C2c3c(oc4cc(C)c(C)cc4c3=O)C(=O)N2CCCN(C)C)cc1 (stereo not given),active: 5.22 µM,
O=C(O)CCCNC(=O)/C=C/c1ccco1,,inactive: 32.8%

SMILES,Potency,"activity change, negative = inhibition"
Cc1[nH]c(C)c(S(=O)(=O)N2CCCCC2C)c1C(=O)N1CCCC1 (stereo not given),,inactive: 1.7%
COc1ccc(NC(=O)N2C[C@@H]3C[C@@H](C2)c2cccc(=O)n2C3)c(OC)c1,"inconclusive [inhibitor, partial curve, poor fit]",
COC(=O)c1ccc2c(=O)n(CCCN3CCCC3=O)c(=S)[nH]c2c1,active: 11.7 µM,
CCOc1ccccc1CN1CCN(Cc2c[nH]c3ccccc23)CC1CCO (stereo not given),"inconclusive [inhibitor, single point]",
Cc1ccc(S(=O)(=O)CCC(=O)OCC(=O)c2cc(C)n(C)c2C)cc1,"inconclusive [inhibitor, single point]",
CCO[C@@H]1OC(C(=O)NC2CC2)=C[C@H](C(C)(C)C)[C@H]1CCCO,"inconclusive [inhibitor, single point]",
O=C(c1ccccc1)C1C(c2ccccc2)C1[N+](=O)[O-] (stereo not given),,inactive: 4.35%
Cc1cc2oc3c(c(=O)c2cc1C)C(c1ccc(C(C)C)cc1)N(CCCN1CCOCC1)C3=O (stereo not given),"inconclusive [inhibitor, single point]",
CCCCCn1c(=O)c(C(=O)NCc2ccccc2)c(O)c2ccccc21,active: 9.28 µM,
CCOc1ccc(NC(=O)Nc2ccc3nccnc3c2)cc1,,inactive: -22%
Cc1onc(-c2c(F)cccc2Cl)c1C(=O)Nc1nc2c(s1)CCCC2,"inconclusive [inhibitor, single point]",
COc1ccccc1NC(=O)COC(=O)c1c[nH]c2ccccc12,"inconclusive [inhibitor, partial curve, poor fit]",
O=C(CCC(=O)OCc1ccc(C(=O)Oc2ccccc2)cc1)Nc1cccc2ccccc12,,inactive: -1.43%
COC(CNC(=O)Cn1nc(Cc2ccncc2)c2ccccc2c1=O)OC,"inconclusive [inhibitor, partial curve, poor fit]",
O=C(CN1C(=O)NC2(CCCCC2)C1=O)NNC(=O)C1CC1,"inconclusive [inhibitor, single point]",
O=C(COc1coc(CN2CCN(c3ccc(F)cc3)CC2)cc1=O)Nc1ccccc1,"inconclusive [inhibitor, single point]",
COc1ccc(NS(=O)(=O)c2cc(NC(=O)c3cnccn3)ccc2OC)cc1Br,,inactive: -19%
CC(C)(C)NCC(=O)N/N=C/c1ccc(OCc2ccccc2)cc1,,inactive: -5.85%
COc1cccc(/C(C)=N/NC(=O)c2cc(-c3cccnc3)nc3ccccc23)c1,"inconclusive [inhibitor, single point]",
CC1CN(S(=O)(=O)c2cccc(C(=O)NCc3ccc4c(c3)OCO4)c2)CC(C)O1 (stereo not given),"inconclusive [inhibitor, single point]",
O=C(NNC(=O)c1cnccn1)c1ccc(Cl)cc1,"inconclusive [inhibitor, single point]",
Cc1cc(NC(=O)CCC(=O)N(CC(=O)NC2CCCC2)c2ccc(Cl)cc2)no1,"inconclusive [inhibitor, partial curve, poor fit]",

SMILES,Potency,"activity change, negative = inhibition"
COc1ccccc1-c1nnc(SCCN2CCOCC2)n1-c1ccc(C)cc1,"inconclusive [inhibitor, partial curve]",
CCn1c2ccc(C)cc2c2n[nH]c(=S)nc21,"inconclusive [inhibitor, single point]",
O=C(N/N=C/c1ccncc1)c1cc(-c2ccc(Br)s2)[nH]n1,"inconclusive [inhibitor, single point]",
Cc1ccc(-n2nccc2-c2nn(-c3cccc(C(F)(F)F)c3)c(=O)n(C)c2=O)cc1,"inconclusive [inhibitor, partial curve, poor fit]",
Cc1nc(SCC(=O)Nc2cc(Cl)ccc2[N+](=O)[O-])nc(C)c1C,,inactive: 1.76%
CCC1CSC(Nc2ccc(C(=O)/C=C/c3ccc(Br)cc3)cc2)=N1 (stereo not given),"inconclusive [inhibitor, single point]",
CN1CCN(c2nnc(-c3ccc(Cl)cc3)c3ccccc23)CC1,"inconclusive [inhibitor, partial curve, poor fit]",
CCC(C(=O)OC)n1cnc2scc(-c3ccc(C)c(C)c3)c2c1=O (stereo not given),active: 13.1 µM,
Cc1nnc2sc(SCC(=O)Nc3nccs3)nn2c1=O,"inconclusive [inhibitor, single point]",
CNC(=O)Oc1ccc(-c2cn3cc(Cl)ccc3n2)cc1,,inactive: 23.9%
COc1ccc(C2Nc3cccc4cccc(c34)N2)cc1,"inconclusive [inhibitor, partial curve]",
COc1ccc(/C=C/C(=O)Nc2c(C)nn(C)c2C)cc1COc1ccc(Br)cc1,"inconclusive [inhibitor, single point]",
CC(C)c1ccc(C(=O)NCCCN2CCOCC2)cc1,,inactive: 31.7%
CCCCC[C@H](O)/C=C/[C@@H]1[C@@H](CCCCCCC(=O)O)[C@@H](O)C[C@H]1O,"inconclusive [inhibitor, partial curve]",
CNC(=O)N/N=C(\N)c1ccccn1,,inactive: 57.9%
C=CCN(CC=C)C(=S)Nc1ccccc1,"inconclusive [inhibitor, partial curve, poor fit]",
NS(=O)(=O)c1ccc(CNC(=O)c2cccc(Oc3ccccc3)c2)cc1,"inconclusive [inhibitor, single point]",
CS(=O)(=O)c1ccc2nc(NC(=O)C3=NN(c4ccccc4)C(=O)CC3)sc2c1,"inconclusive [inhibitor, single point]",
CCOCCCN(C(=O)c1ccco1)C(C(=O)NC1CCCC1)c1ccc(OC)cc1 (stereo not given),"inconclusive [inhibitor, partial curve, poor fit]",
O=C(NCc1cccnc1)c1cccn1-c1ncc(C(F)(F)F)cc1Cl,"inconclusive [inhibitor, single point]",
CC(=O)Nc1ccc(S(=O)(=O)N[C@@H](C)C(=O)N2CCN(C/C=C/c3ccccc3)CC2)cc1,"inconclusive [inhibitor, single point]",
